94 sequences from the supplement of paper PMC3334620 can be followed below.

Whole data set: some 33,000 sequences, median “E-score (-0.5 to 0.5)” near -0.054, cut for the highest 2% near 0.39. Some of the results follow.

The assay concerns the target Ylr278c (UniProt Q05854). Put plainly: PBM E-score (8-mer binding enrichment) (E-score (-0.5 to 0.5)); higher = stronger / more preferred TF binding; most listed sequences are background and not binding sites. Particulars: protein concentration: 200 nM; construct: GST-DNA-binding domain. In a few lines: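 Yeast transcription factors, full-length or as DNA-binding domains, were expressed with a GST tag using PURExpress in vitro transcription/translation. At about 100-200 nM they were applied to universal all-10-mer Agilent arrays, double-stranded by primer extension on fresh or once-stripped slides. Fluorescent anti-GST detected bound protein, and masliner normalised the scans. E-scores for ungapped eight-base words, pooled with reverse complements, came from the Universal PBM Analysis Suite.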
Consider ATGCAGAC, for which the “PBM E-score” value is -0.252. For TCAGGCAA the value was -0.216; for CCCATGAA, -0.196; for CTTCCAAA, -0.169. For CGGAGCTC the value was 0.441.

For AACAAATG, the “PBM E-score” value was 0.00468. With CCTTTTAC, the “PBM E-score” value was -0.0485. Turning to ACTTAGAT, the “PBM E-score” value was -0.0121. As for GGACATAC, the figure is 0.165; as for CCCGCGAA, 0.114; as for ATCGTAAG, -0.106.

AGTAAAAC: the “PBM E-score” value is -0.123.

As for ACTGCCGC, the “PBM E-score” value was 0.214. For CGTGCATC the value was -0.152. As for GAAGATCC, the figure is 0.145. As to CAGCTAGA, the “PBM E-score” value was -0.255. Take AACGTTTG: the “PBM E-score” value was -0.126. With CATAGAAC, the “PBM E-score” value was -0.0911. For the sequence AGATAACA, the “PBM E-score” value is -0.113.

Regarding GTGCTCTA, the “PBM E-score” value was -0.157. As for GTCACCAA, the figure is -0.286; as for AATGGGGA, -0.166. For TGGGGGAA, the “PBM E-score” value is -0.135. As for CCACGGTA, the figure is 0.07. For ACGCGCTG, the “PBM E-score” value is -0.145. Regarding GACACAAC, the “PBM E-score” value is -0.0648. For AAACAGTA the value was -0.0988; for GCATATGA, 0.00978. Regarding AATGGGCG, the “PBM E-score” value is -0.049. As for AAGAGTTA, the figure is -0.22. For the sequence CGAGCCTA, the “PBM E-score” value was -0.0485. With CCTTTAGC, the “PBM E-score” value is -0.152. As for CATACCGC, the figure is 0.0643; as for AGCTCGTG, 0.101; as for GCCTCCAC, -0.044. Turning to ACCGATCC, the “PBM E-score” value came to 0.207. As for AAACGTTT, the figure is 0.097; as for CTGCACGA, -0.238; as for CTGTGCCC, -0.0177. In the case of AGTGTTCA, the “PBM E-score” value was determined as 0.0534.

For GAGGAGAC, the “PBM E-score” value is -0.0694. For ACCCGTCC, the “PBM E-score” value is -0.0428. As for GAAACCAA, the figure is 0.0455; as for AAGCGCGC, 0.203; as for ACGTGCTG, -0.243.

Consider TCCTAGAA, for which the “PBM E-score” value was -0.0707. For ATAGGGCC, the “PBM E-score” value was -0.0457. For TCCGGGCA the value was 0.406; for CCGAGTTC, 0.256; for CCTCGATC, -0.0491. For CGATACGC, the “PBM E-score” value was 0.166. AATATGGC: the “PBM E-score” value was -0.0867. In the case of AGTGCACA, the “PBM E-score” value was -0.0486. With CAAAATGC, the “PBM E-score” value came out at 0.0166. As for AGCCTGTC, the figure is -0.224. For AGGGTTAT the value was -0.222; for CCATGAGA, -0.0752. As to GCTATGTA, the “PBM E-score” value is -0.219. On to GTGGGATA, for which the “PBM E-score” value is 0.0989. ATCAGTGG: the “PBM E-score” value was -0.147. As for ACATTGGG, the figure is -0.122; as for ATTCTACA, -0.0671. Take AAATTGGG: the “PBM E-score” value stood at 0.0673. Regarding AGAGGGCC, the “PBM E-score” value was -0.0781. For TACTTAGA the value was -0.272; for ACCAGGCA, -0.243. In the case of CTAACGCC, the “PBM E-score” value amounted to 0.117. Regarding CTTTTATA, the “PBM E-score” value is -0.137.

On to TACAACCA, for which the “PBM E-score” value is -0.037. As for ACGAATCC, the figure is -0.0473.

On to AGCTCTCC, for which the “PBM E-score” value is -0.0413. As for CCGCAGTC, the “PBM E-score” value is 0.15. For CCTTACAG the value was -0.146; for TTGATCAA, -0.0727; for ACGGACGA, 0.177. As for CAGTAACA, the “PBM E-score” value is -0.0814.

For the sequence CCAAGCCC, the “PBM E-score” value is -0.0799. For the sequence GTTGCGGA, the “PBM E-score” value was determined as 0.316.

Turning to ATGTTTTA, the “PBM E-score” value is -0.276. Regarding AGCATCTG, the “PBM E-score” value was -0.21. In the case of TAACCTGA, the “PBM E-score” value was -0.193.

With AGAGAGCC, the “PBM E-score” value was -0.31.

With CAATGAAC, the “PBM E-score” value was -0.0994. Regarding ACACCACG, the “PBM E-score” value is -0.103. Take CTATCGTA: the “PBM E-score” value is -0.18.

For the sequence CAATTTTC, the “PBM E-score” value is 0.0932.

As for AGATCCTC, the “PBM E-score” value was -0.001. For ACCATGAG the value was -0.118. With AGGGGGCA, the “PBM E-score” value is -0.182.

On to CGATCCCA, for which the “PBM E-score” value is -0.0535. AAGAAACT: the “PBM E-score” value is -0.0525. As to ATCTGTTA, the “PBM E-score” value was -0.0419.

ATTATGGC: the “PBM E-score” value amounted to 0.0441. Consider CAAAATGA, for which the “PBM E-score” value is -0.0925.
